Laboratory results from the supplement of paper PMC8728848.
Some of the results follow.

How the values were obtained:
Assay in all cases: glycan array binding signal (z-score within array); higher = stronger binding
Conditions in all cases: glycan notation: IUPAC condensed, linker removed
[1] = target: Neu5Ac(a2-3)Gal(b1-3)[Fuc(a1-4)]GlcNAc(b1-3)Gal(b1-4)[Fuc(a1-3)]GlcNAc
Method in brief: (§1)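 Glycan array data were curated from 3228 arrays in the Consortium for Functional Glycomics database and kept only where the protein sequence was available. Glycan names were converted to IUPAC-condensed notation, and columns mapping to the same glycan were averaged. The binding signal is a within-array Z-score, averaged across arrays of the same protein sequence at different concentrations or buffers and across linkers. Negative Z-scores can be read as non-binding.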

[2] = target: Neu5Ac(a2-3)Gal(b1-3)[GlcNAc(b1-6)]GalNAc
Method in brief: as §1

[3] = target: Neu5Ac(a2-3)Gal(b1-3)[Neu5Ac(a2-3)Gal(b1-4)]GlcNAc
Method in brief: as §1

[4] = target: Neu5Ac(a2-3)Gal(b1-3)[Neu5Ac(a2-6)]GalNAc
Method in brief: as §1

[5] = target: Neu5Ac(a2-3)Gal(b1-3)[Neu5Ac(a2-6)]GlcNAc(b1-3)[Fuc(a1-3)[Gal(b1-4)]GlcNAc(b1-6)]Gal(b1-4)Glc
Method in brief: as §1

[6] = target: Neu5Ac(a2-3)Gal(b1-3)]Neu5Ac(a2-3)Gal(b1-4)]GlcNAc
Method in brief: as §1

Neu5Ac(a2-3)Gal(b1-4)Glc = target: Neu5Ac(a2-3)Gal(b1-4)Glc
Method in brief: as §1

[7] = target: Neu5Ac(a2-3)Gal(b1-4)GlcNAc
Method in brief: as §1

[8] = target: Neu5Ac(a2-3)Gal(b1-4)GlcNAc(b1-2)Man
Method in brief: as §1

[9] = target: Neu5Ac(a2-3)Gal(b1-4)GlcNAc(b1-2)Man(a1-3)[GlcNAc(b1-2)Man(b1-4)GlcNAc(b1-2)Man(a1-6)]Man(b1-4)GlcNAc(b1-4)GlcNAc
Method in brief: as §1

[10] = target: Neu5Ac(a2-3)Gal(b1-4)GlcNAc(b1-2)Man(a1-3)[GlcNAc(b1-4)][Neu5Ac(a2-3)Gal(b1-4)GlcNAc(b1-2)Man(a1-6)]Man(b1-4)GlcNAc(b1-4)GlcNAc
Method in brief: as §1

[11] = target: Neu5Ac(a2-3)Gal(b1-4)GlcNAc(b1-2)Man(a1-3)[Neu5Ac(a2-3)Gal(b1-4)GlcNAc(b1-2)Man(a1-6)]Man(b1-4)GlcNAc(b1-4)GlcNAc
Method in brief: as §1

[12] = target: Neu5Ac(a2-3)Gal(b1-4)GlcNAc(b1-2)Man(a1-3)[Neu5Ac(a2-3)Gal(b1-4)GlcNAc(b1-2)Man(a1-6)]Man(b1-4)GlcNAc(b1-4)[Fuc(a1-6)]GlcNAc
Method in brief: as §1

[13] = target: Neu5Ac(a2-3)Gal(b1-4)GlcNAc(b1-2)Man(a1-3)[Neu5Ac(a2-6)Gal(b1-4)GlcNAc(b1-2)Man(a1-6)]Man(b1-4)GlcNAc(b1-4)GlcNAc
Method in brief: as §1

[14] = target: Neu5Ac(a2-3)Gal(b1-4)GlcNAc(b1-2)[Neu5Ac(a2-3)Gal(b1-4)GlcNAc(b1-4)]Man(a1-3)[GlcNAc(b1-4)][Neu5Ac(a2-3)Gal(b1-4)GlcNAc(b1-2)[Neu5Ac(a2-3)Gal(b1-4)GlcNAc(b1-6)]Man(a1-6)]Man(b1-4)GlcNAc(b1-4)GlcNAc
Method in brief: as §1

[15] = target: Neu5Ac(a2-3)Gal(b1-4)GlcNAc(b1-2)[Neu5Ac(a2-3)Gal(b1-4)GlcNAc(b1-4)]Man(a1-3)[GlcNAc(b1-4)][Neu5Ac(a2-3)Gal(b1-4)GlcNAc(b1-4)Man(a1-6)]Man(b1-4)GlcNAc(b1-4)GlcNAc
Method in brief: as §1

[16] = target: Neu5Ac(a2-3)Gal(b1-4)GlcNAc(b1-2)[Neu5Ac(a2-3)Gal(b1-4)GlcNAc(b1-6)]Man(a1-6)[Neu5Ac(a2-3)Gal(b1-4)GlcNAc(b1-2)Man(a1-3)]Man(b1-4)GlcNAc(b1-4)GlcNAc
Method in brief: as §1

[17] = target: Neu5Ac(a2-3)Gal(b1-4)GlcNAc(b1-2)[Neu5Ac(a2-3)Gal(b1-4)GlcNAc(b1-6)]Man(a1-6)[Neu5Ac(a2-3)Gal(b1-4)GlcNAc(b1-2)Man(a1-3)][GlcNAc(b1-4)]Man(b1-4)GlcNAc(b1-4)GlcNAc
Method in brief: as §1

[18] = target: Neu5Ac(a2-3)Gal(b1-4)GlcNAc(b1-3)Gal
Method in brief: as §1

[19] = target: Neu5Ac(a2-3)Gal(b1-4)GlcNAc(b1-3)Gal(b1-3)GlcNAc
Method in brief: as §1

[20] = target: Neu5Ac(a2-3)Gal(b1-4)GlcNAc(b1-3)Gal(b1-4)GlcNAc
Method in brief: as §1

[21] = target: Neu5Ac(a2-3)Gal(b1-4)GlcNAc(b1-3)Gal(b1-4)GlcNAc(b1-2)Man(a1-3)[Neu5Ac(a2-3)Gal(b1-4)GlcNAc(b1-3)Gal(b1-4)GlcNAc(b1-2)Man(a1-6)]Man(b1-4)GlcNAc(b1-4)GlcNAc
Method in brief: as §1

[22] = target: Neu5Ac(a2-3)Gal(b1-4)GlcNAc(b1-3)Gal(b1-4)GlcNAc(b1-3)Gal(b1-4)GlcNAc
Method in brief: as §1

[23] = target: Neu5Ac(a2-3)Gal(b1-4)GlcNAc(b1-3)Gal(b1-4)GlcNAc(b1-3)Gal(b1-4)GlcNAc(b1-2)Man(a1-3)[Neu5Ac(a2-3)Gal(b1-4)GlcNAc(b1-3)Gal(b1-4)GlcNAc(b1-3)Gal(b1-4)GlcNAc(b1-2)Man(a1-6)]GalNAc
Method in brief: as §1

[24] = target: Neu5Ac(a2-3)Gal(b1-4)GlcNAc(b1-3)Gal(b1-4)GlcNAc(b1-3)GalNAc
Method in brief: as §1

[25] = target: Neu5Ac(a2-3)Gal(b1-4)GlcNAc(b1-3)Gal(b1-4)GlcNAc(b1-3)[Neu5Ac(a2-3)Gal(b1-4)GlcNAc(b1-3)Gal(b1-4)GlcNAc(b1-6)]GalNAc
Method in brief: as §1

[26] = target: Neu5Ac(a2-3)Gal(b1-4)GlcNAc(b1-3)Gal(b1-4)GlcNAc(b1-6)[Gal(b1-3)]GalNAc
Method in brief: as §1

[27] = target: Neu5Ac(a2-3)Gal(b1-4)GlcNAc(b1-3)Gal(b1-4)[Fuc(a1-3)]GlcNAc
Method in brief: as §1

[28] = target: Neu5Ac(a2-3)Gal(b1-4)GlcNAc(b1-3)GalNAc
Method in brief: as §1

[29] = target: Neu5Ac(a2-3)Gal(b1-4)GlcNAc(b1-3)[Neu5Ac(a2-3)Gal(b1-4)GlcNAc(b1-6)]GalNAc
Method in brief: as §1

[30] = target: Neu5Ac(a2-3)Gal(b1-4)GlcNAc(b1-6)GalNAc
Method in brief: as §1

[31] = target: Neu5Ac(a2-3)Gal(b1-4)GlcNAc(b1-6)[Gal(b1-3)]GalNAc
Method in brief: as §1

[32] = target: Neu5Ac(a2-3)Gal(b1-4)GlcNAc(b1-6)[Neu5Ac(a2-3)Gal(b1-3)]GalNAc
Method in brief: as §1

[33] = target: Neu5Ac(a2-3)Gal(b1-4)GlcNAc6S
Method in brief: as §1

[34] = target: Neu5Ac(a2-3)Gal(b1-4)[Fuc(a1-3)]GlcNAc
Method in brief: as §1

[35] = target: Neu5Ac(a2-3)Gal(b1-4)[Fuc(a1-3)]GlcNAc(b1-2)Man
Method in brief: as §1

[36] = target: Neu5Ac(a2-3)Gal(b1-4)[Fuc(a1-3)]GlcNAc(b1-3)Gal
Method in brief: as §1

[37] = target: Neu5Ac(a2-3)Gal(b1-4)[Fuc(a1-3)]GlcNAc(b1-3)Gal(b1-4)GlcNAc
Method in brief: as §1

B1: PpFlo2 (Pichia pastoris) (protein)
chain: MGSSHHHHHHSSGLVPRGSHMDDSGNGDNSDTAYGCDITTNAVDGFDATIYQYNANDLRLIRDPTFMSTGYLGRNVLNKISGVTVPGFNIWNPSSRTATVYGVKNVNYYNMVLELKGYFKADVSGDYKLTLSHIDDSSMLFFGKETAFKCCDAGSIPLNEAPTDYSLFTIKPSNQVNSEVISATQYLEAGKYYPVRIVFVNALERARFDFKLTIPSGAVLDDFQNYIYQFGDLDENSCHE
glycan array binding signal (z-score) [1]: -0.279
glycan array binding signal (z-score) [2]: 0.351
glycan array binding signal (z-score) [3]: -0.355
glycan array binding signal (z-score) [4]: -0.257
glycan array binding signal (z-score) [5]: -0.265
glycan array binding signal (z-score) [6]: -0.272
glycan array binding signal (z-score) (Neu5Ac(a2-3)Gal(b1-4)Glc): -0.294
glycan array binding signal (z-score) [7]: -0.296
glycan array binding signal (z-score) [8]: -0.27
glycan array binding signal (z-score) [9]: -0.337
glycan array binding signal (z-score) [10]: -0.272
glycan array binding signal (z-score) [11]: -0.274
glycan array binding signal (z-score) [12]: -0.271
glycan array binding signal (z-score) [13]: -0.286
glycan array binding signal (z-score) [14]: -0.265
glycan array binding signal (z-score) [15]: -0.271
glycan array binding signal (z-score) [16]: -0.2
glycan array binding signal (z-score) [17]: -0.274
glycan array binding signal (z-score) [18]: -0.289
glycan array binding signal (z-score) [19]: -0.284
glycan array binding signal (z-score) [20]: -0.293
glycan array binding signal (z-score) [21]: -0.239
glycan array binding signal (z-score) [22]: -0.263
glycan array binding signal (z-score) [23]: -0.252
glycan array binding signal (z-score) [24]: 0.111
glycan array binding signal (z-score) [25]: -0.208
glycan array binding signal (z-score) [26]: -0.259
glycan array binding signal (z-score) [27]: -0.293
glycan array binding signal (z-score) [28]: -0.302
glycan array binding signal (z-score) [29]: 0.174
glycan array binding signal (z-score) [30]: -0.278
glycan array binding signal (z-score) [31]: -0.301
glycan array binding signal (z-score) [32]: -0.298
glycan array binding signal (z-score) [33]: -0.301
glycan array binding signal (z-score) [34]: -0.293
glycan array binding signal (z-score) [35]: -0.272
glycan array binding signal (z-score) [36]: -0.304
glycan array binding signal (z-score) [37]: -0.275
